{"source": "PubChem BioAssay (Tox21)", "key": {"[1]": {"experiment": "A CellTox Green Cytotoxicity Assay to monitor cytotoxicity in HEK293 cells - 40 hour (AID 1224871); note: nearly all actives have a fitted effect of over 45% in size; note: potency is the fitted concentration of half-maximal effect", "how_it_was_run": "(§1)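 Cytotoxicity was tracked continuously in HEK293 cells by a DNA-binding dye excluded from viable cells. Compounds were transferred in DMSO 5 h after seeding; fluorescence was recorded at intervals up to 40 h.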"}, "[2]": {"experiment": "qHTS RealTime-Glo MT Cell Viability Assay in HEK293 cells - 16 hour (AID 1224872)", "how_it_was_run": "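Reads taken at 0, 8, 16, 24, 32 and 40 h from the same wells. HEK293 cells (600/well) carried RealTime-Glo reagents from seeding, with compound added after a 5 h settle at 37 C.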"}, "[3]": {"experiment": "A CellTox Green Cytotoxicity Assay to monitor cytotoxicity in HEK293 cells - 24 hour (AID 1224875)", "how_it_was_run": "as §1"}, "[4]": {"experiment": "qHTS RealTime-Glo MT Cell Viability Assay in HepG2 cells - 32 hour (AID 1224877)", "how_it_was_run": "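HepG2 suspension premixed with RealTime-Glo reagents is plated at 600 cells per well and left 5 h at 37 C/5% CO2. Compounds in DMSO then go in, and bioluminescence reflecting viable cell number is recorded over 40 h.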"}, "[5]": {"experiment": "qHTS RealTime-Glo MT Cell Viability Assay in HEK293 cells - 40 hour (AID 1224874)", "settings": "RealTime-Glo luminescence; max response: stronger effect = lower value", "how_it_was_run": "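Nonlytic bioluminescent viability monitoring. HEK293 at 600 cells/well with reagent; 5 h settle; compound transfer by pintool; plates held at 37 C and read at set time points.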"}, "[6]": {"experiment": "A CellTox Green Cytotoxicity Assay to monitor cytotoxicity in HepG2 cells - 16 hour (AID 1224876)", "how_it_was_run": "(§2)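 Real-time, homogeneous cytotoxicity readout: dead-cell DNA staining by CellTox Green in HepG2 monolayers, fluorescence measured at timed intervals up to 40 h of continuous compound exposure.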"}, "[7]": {"experiment": "A CellTox Green Cytotoxicity Assay to monitor cytotoxicity in HepG2 cells - 24 hour (AID 1224878)", "how_it_was_run": "as §2"}, "[8]": {"experiment": "A CellTox Green Cytotoxicity Assay to monitor cytotoxicity in HepG2 cells - 40 hour (AID 1224879)", "how_it_was_run": "as §2"}}, "note": "Inconclusive results, whose numbers are uncertain, are shown with a selection of clear calls. For some of these results: Potencies beside an inconclusive call are fits to weak or partial responses and may not hold up. Calls of active or inactive are those of the source. Calls come from the whole dose curve; as a rule, active = well fitted curve in the direction sought with a large enough effect in the repeat runs; inconclusive = weak or mixed curves; inactive = no such curve, though single readings can be large; an effect the other way counts as inactive or inconclusive. Tags give direction and shape of the fitted curve. Throughout, for activity change, negative = cytotoxicity: nearly all actives have a fitted effect of over 50% in size. Throughout, for activity change, negative = cytotoxicity: top concentration of the series differs between compounds; % is set by controls: 0 for no effect and ±100 for the full control effect. Throughout, for max response: % is set by controls: 0 for no effect and ±100 for the full control effect. Throughout, for max response: nearly all actives have a fitted effect of over 50% in size."}
{"compound": "COc1cc(Cl)ccc1Cl", "values": [{"measurement": "Potency", "setting": "[1]", "result": "inconclusive: 62.9 µM [activator, single point]"}, {"measurement": "Potency", "setting": "[2]", "result": "inactive"}, {"measurement": "Potency", "setting": "[3]", "result": "inconclusive: 56 µM [activator, single point]"}]}
{"compound": "C/C=C/C(=O)CC", "values": [{"measurement": "Potency", "setting": "[1]", "result": "inconclusive: 0.0335 µM [activator, single point]"}, {"measurement": "activity change, negative = cytotoxicity", "setting": "[2]", "result": "inactive: 1.69% [at 15.8 µM]"}, {"measurement": "Potency", "setting": "[3]", "result": "inconclusive: 0.0335 µM [activator, single point]"}]}
{"compound": "C[N+]12CCC(CC1)C(OC(=O)C(O)(c1ccccc1)c1ccccc1)C2", "note": "(configuration not stated)", "values": [{"measurement": "Potency", "setting": "[1]", "result": "inactive"}, {"measurement": "Potency", "setting": "[2]", "result": "inactive"}, {"measurement": "Potency", "setting": "[4]", "result": "inactive"}]}
{"compound": "c1ccc(CCNc2nc(-c3ccccc3)cs2)cc1", "values": [{"measurement": "Potency", "setting": "[1]", "result": "inconclusive: 10.7 µM [activator, single point]"}, {"measurement": "max response", "setting": "[5]", "result": "inactive: -22.9%"}, {"measurement": "Potency", "setting": "[3]", "result": "inconclusive: 10.7 µM [activator, single point]"}, {"measurement": "Potency", "setting": "[6]", "result": "inconclusive: 13.4 µM [activator, single point]"}, {"measurement": "Potency", "setting": "[7]", "result": "inconclusive: 13.4 µM [activator, single point]"}]}
{"compound": "O=C(CCC1CCN(Cc2ccccc2)CC1)c1ccc2c(c1)NCCCC2", "values": [{"measurement": "Potency", "setting": "[1]", "result": "inconclusive: 26.8 µM [activator, single point]"}, {"measurement": "Potency", "setting": "[5]", "result": "active: 9.52 µM"}, {"measurement": "Potency", "setting": "[8]", "result": "inconclusive: 21.3 µM [activator, partial curve]"}]}
{"compound": "O=C1CCC(C2CCCCC2)CC1", "values": [{"measurement": "Potency", "setting": "[1]", "result": "active: 49 µM"}, {"measurement": "Potency", "setting": "[2]", "result": "inconclusive: 24.5 µM [cytotoxic, full curve, poor fit]"}, {"measurement": "Potency", "setting": "[5]", "result": "inconclusive: 0.0039 µM [cytotoxic, full curve, poor fit]"}, {"measurement": "Potency", "setting": "[6]", "result": "active: 38.9 µM"}, {"measurement": "Potency", "setting": "[8]", "result": "active: 38.9 µM"}]}
